# Screen size: about 45,000 compounds; about 200 (0.44%) were called active. Another 7% or so got no clear call; they are omitted. The call rests on the fitted dose curve; in most records, active means well fitted activation curve with a large enough effect; inconclusive means small, poorly fitted or top-dose-only effect; inactive means no such curve, though single readings can be large or run the other way. Some of the results follow.
# Assay: qHTS of TDP-43 Inhibitors: NCGC Sytravon Library Screen; further: 0% is about no effect; nearly all actives have a fitted effect of over 55% in size
# Conditions: yeast TDP-43 toxicity rescue, BacTiter-Glo growth, 24 h; series mostly up to 46.1 µM; growth rescue (activation): at the top concentration
# Summary of the method: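 TDP-43-expressing yeast, pregrown in raffinose, seeded at OD600 0.02 in galactose medium with compound for 24 hr at 30 deg C. Growth read by BacTiter-Glo luminescence, so rescue of toxicity appears as activation.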
row,Structure (SMILES),growth rescue (activation)
1,CCC1=Nc2cc(C(=O)NCc3cccnc3)ccc2Sc2ccc(C)cc21,inactive: 0.868%
2,CCOC(=O)C1CCCN(CCC(=O)Nc2cccc(C)c2)C1 (centres undefined),inactive: 6.07%
3,O=C1c2ccccc2CN2C(=O)c3ccccc3CN12,inactive: 14.3%
4,CC(OC(=O)c1ccccc1NS(=O)(=O)c1cccc(C(F)(F)F)c1)C(=O)N(C)Cc1ccccc1 (centres undefined),inactive: 1.68%
5,COc1ccc2nc(C)cc(SCC(=O)N/N=C/c3ccccc3)c2c1,inactive: 11.1%
6,CC(C)CNC(=O)CSc1ccc(S(=O)(=O)N(C)C2CCCCC2)cn1,inactive: 24.8%
7,Cc1cccc(C(=O)NNC(=O)CSc2nnc(C(C)C)n2C)c1,inactive: 3.81%
8,O=C(COC(=O)c1cccnc1Cl)Nc1ccccc1OC(F)F,inactive: 30.9%
9,C/C(=N\Nc1cccc([N+](=O)[O-])c1)c1cc2ccccc2o1,inactive: -4.81%
10,O=C1Nc2ccc([N+](=O)[O-])cc2OC1CCN1CCOCC1 (centres undefined),inactive: 12.5%
11,CCOC(=O)c1sc(NC(=O)Nc2ccccc2)cc1C,inactive: 3.9%
12,CC(=O)Nc1ccc(SCC(=O)c2ccc(Br)s2)cc1,inactive: 18.1%
13,COC(CC(=O)NNC(=S)Nc1ccc(Cl)cc1)OC,inactive: -7.02%
14,O=C(O)CN1CCc2ccccc2C1,inactive: -17.6%
15,COCCNC(=O)C1CCCN(Cc2ccc(C(C)C)cc2)CC1 (centres undefined),inactive: 3.73%
16,COc1ccc(-c2cc3ncc(-c4ccccc4)c(N)n3n2)cc1,inactive: 29.8%
17,CCOc1ccc(-n2c(-c3ccccc3)c[nH]c2=S)cc1,inactive: 24.1%
18,OC1CCN(Cc2nc(Cc3ccccc3Cl)no2)CC1,inactive: -4.63%
19,COc1ccccc1CNC(=O)CN(CCc1ccccc1)S(C)(=O)=O,inactive: -6.1%
20,O=C(c1ccc(Br)o1)N1CCN(CCOc2ccccc2)CC1,inactive: 12.7%
21,N#C/C(=C\c1ccc(Sc2ccccc2)o1)c1nc2ccccc2[nH]1,inactive: 23.9%
22,O=C(O)c1ccccc1C(=O)Nc1ccc(S(=O)(=O)N2CCCC2)cc1,inactive: -13.6%

row,Structure (SMILES),growth rescue (activation)
1,COC(=O)c1ccc(CN2CCC(CO)(Cc3ccccc3Cl)CC2)cc1,inactive: 0.421%
2,O=C(COC(=O)c1cc[n+]([O-])cc1)Nc1ccc([N+](=O)[O-])cc1Cl,inactive: 10.5%
3,Cc1ccccc1C(=O)OCCN(C)Cc1ccccc1,inactive: -4.43%
4,CCN(CC)c1ccc(/C=C/C(=O)c2ccc(Br)cc2)cc1,inactive: 36.2%
5,Cc1ccc(S(=O)(=O)N(C)C)cc1NC(=O)COC(=O)c1ccc2c(c1)NC(=O)CS2,inactive: 7.31%
6,N/C(=N\N=C\c1ccco1)SC1CC(=O)N(c2ccc(C(=O)O)cc2)C1=O (centres undefined),inactive: 9.66%
7,COC(=O)/C=C/COc1ccccc1[N+](=O)[O-],inactive: 8.67%
8,CC(C)Cn1c(-c2cc([N+](=O)[O-])ccc2Cl)nc2c1c(=O)[nH]c(=O)n2Cc1ccccc1,inactive: 8.79%
9,CCNC(=O)N(C)c1c(CC)nc2ccc(C(=O)Nc3cccc(OCC(=O)N(C)C)c3)cn12,inactive: 0.513%
10,S=c1[nH]nc(-c2ccccn2)n1/N=C/c1cccc(Cl)c1,inactive: 6.73%
11,O=C(NC(=S)NCc1cccnc1)c1cc2ccccc2o1,inactive: 4.97%
12,CCn1c(=O)c([N+](=O)[O-])c(N2CCOCC2)c2ccccc21,inactive: -21.9%
13,CCC(=O)Nc1ccc(NC(=S)NC(=O)c2cc3ccccc3o2)cc1,inactive: 4.01%
14,Cn1c(=O)c2c(nc(N3CCOCC3)n2CCc2ccccc2)n(C)c1=O,inactive: -4.33%
15,CN(C)CCCN(Cc1ccccc1)C(=S)NCc1ccccc1,inactive: -6.85%
16,CCN(CC)c1ccc(/C=N/NC(=O)c2ccc3nc[nH]c3c2)c(O)c1,inactive: 27.5%
17,COc1ccc(-c2noc(C3CCCN(C(=O)c4cccc(F)c4)C3)n2)cc1 (centres undefined),inactive: 25.5%
18,Cc1cc(C(F)(F)F)nc(CCNC(=O)C2CCC(=O)N(Cc3cccc(F)c3)C2)n1 (centres undefined),inactive: 9.55%
19,COc1cc(C(=O)COC(=O)C2CC2(Cl)Cl)cc(OC)c1OC (centres undefined),inactive: 4.94%
20,O=C(Nc1cccc(S(=O)(=O)N2CCCC2)c1)[C@@H]1O[C@H](CO)[C@@H](O)[C@H]1O,inactive: 12.2%
21,CC1CCCC(C)N1C(=O)COc1ccccc1F (centres undefined),inactive: 1.83%
22,O=C(COC(=O)C1C2CC3OC(=O)C1C3C2)Nc1ccc(Br)cc1 (centres undefined),inactive: 4.33%

row,Structure (SMILES),growth rescue (activation)
1,O=C(NCCC(c1ccccc1)c1ccccc1)c1cnccn1,inactive: 9.95%
2,COc1ccc(Oc2nc(-c3ccccn3)ncc2OC)cc1,inactive: -14.4%
3,O=C(Cn1cc(C(F)(F)F)ccc1=O)N/N=C/c1ccc(Cl)c(Cl)c1,inactive: 13.9%
4,Nc1ccccc1SCc1ccccc1,inactive: 12.2%
5,Cc1ccccc1OCC(=O)OCC(=O)N1CCc2ccccc21,inactive: 3.27%
6,NS(=O)(=O)c1ccc(N2C(=O)C3C4CC(C(Br)C4Br)C3C2=O)cc1 (centres undefined),inactive: 5.23%
7,Cc1nn(CC(=O)Nc2ccc(S(=O)(=O)N(C)C)cc2)c(C)c1[N+](=O)[O-],inactive: 6.03%
8,COc1ccc(OCC(=O)NNC(=O)c2c(-c3ccccc3Cl)noc2C)cc1,inactive: -9.76%
9,COc1cccc(CN2CCNC(=O)C2CC(=O)NCc2cn3cccc(C)c3n2)c1OC (centres undefined),inactive: -2.06%
10,CCN(CC)S(=O)(=O)c1ccc2oc(C(=O)NC3CC3)c(C)c2c1,inactive: 9.78%
11,FC(F)(F)c1cccc(NC(=S)N2CCN(c3ccccc3)CC2)c1,inactive: 10.4%
12,N#CCCn1c(C2CCCCC2)nc2ccccc21,inactive: 14.7%
13,NS(=O)(=O)c1ccc(CCN=Cc2ccccc2O)cc1,inactive: 13%
14,Cc1cccc(C)c1NC(=O)CNC(=O)Cc1ccccc1[N+](=O)[O-],inactive: 0.317%
15,O=C(NCc1ccccn1)/C(=C/c1ccco1)NC(=O)c1ccccc1,inactive: 9.18%
16,CCn1c(SCC(=O)NC2=NCCS2)nnc1C(C)NC(=O)c1ccccc1F (centres undefined),inactive: -23.9%
17,CC(Nc1nc2ccccc2n2cnnc12)c1ccccc1 (centres undefined),inactive: 23.9%
18,CCCc1cc(C(=O)Nc2cccc(Cl)c2C)no1,inactive: 21.7%
19,O=[N+]([O-])c1ccc(C(=S)N2CCC(Cc3ccccc3)CC2)cc1,inactive: 22.3%
20,O=[N+]([O-])c1ccc(O)c(/C=N/Nc2nc3ccccc3[nH]2)c1,inactive: 6.45%
21,COc1ccc(C2CC(c3ccccc3)=NN2C(=O)CCC(=O)O)cc1 (centres undefined),inactive: -16.7%
22,c1ccc(-c2nccc(-c3ccc4c(c3)OCO4)n2)cc1,inactive: 12.1%

row,Structure (SMILES),growth rescue (activation)
1,CN(C)c1ccc(N=Nc2ccc(C(=O)O)cc2)cc1,inactive: 13.6%
2,Cc1noc(C)c1S(=O)(=O)Nc1ccc(C(=O)NC2CCCCCC2)cc1,inactive: 22.4%
3,COc1ccc(CC(=O)N2CCC(n3nccc3NC(=O)C3CC3)CC2)cc1,inactive: 15.1%
4,COc1ccc(Br)cc1CN(C)CC(O)COc1ccc(Br)cc1 (centres undefined),inactive: -5.16%
5,COc1ccccc1NC(=O)c1c(N=Cc2c(O)ccc3ccccc23)cnn1C,inactive: -25%
6,COc1cc(NC(=S)N2CCN(CCO)CC2)c(OC)cc1Cl,inactive: -0.666%
7,CCOC(=O)c1ccc(NC(c2ccc(N(C)C)cc2)P(=O)(OC(C)C)OC(C)C)cc1 (centres undefined),inactive: -0.743%
8,COc1ccc(S(=O)(=O)NN(C)c2nc(C(F)(F)F)nc3ccccc23)cc1,inactive: 9.67%
9,CC(=O)N(C)c1ccc(C(O)(C(F)(F)F)C(F)(F)F)cc1,inactive: -7.9%
10,O=C1NC(=Nc2ccc(F)cc2)SC1Cc1ccc(F)cc1 (centres undefined),inactive: 1.02%
11,CC1(C(=O)NCc2cccs2)Cc2c(-c3ccc(C(N)=O)cc3)ccnc2O1 (centres undefined),inactive: 8.92%
12,COc1ccc(OC)c(NC(=S)NCc2cccs2)c1,inactive: 4.51%
13,O=C(CN1C(=O)COc2ccccc21)NNC(=O)Nc1ccccc1F,inactive: -9.51%
14,C/C(CC(=O)NCc1ccco1)=N\NC(=O)C(c1ccccc1)c1ccccc1,inactive: 0.374%
15,Cc1cccc(Oc2ccc(S(=O)(=O)N3CCCCC3)cc2N)c1,inactive: 23.2%
16,Cc1ccc(-c2nn3c(C)nnc3s2)cc1NC(=O)c1cccnc1,inactive: 16.8%
17,CCOc1ccc(CNc2ccc(N3CCOCC3)c(C(=O)O)c2)cc1,inactive: 3.47%
18,COc1ccc2ncc(OC(C)=O)cc2c1,inactive: 11.5%
19,CCN(CC)S(=O)(=O)c1ccc(N2CCOCC2)c(NC(=O)c2sccc2C)c1,inactive: 23.2%
20,COc1ccccc1NS(=O)(=O)c1cc(NC(=O)c2cc3ccccc3oc2=O)ccc1C,inactive: 6.65%
21,COc1ccc(NC(=S)N2CCCC(c3nc4ccc(C)cc4[nH]3)C2)cc1 (centres undefined),inactive: -0.905%
22,Cc1ccc(S(=O)(=O)NC(C)C(=O)NC(C)c2cccs2)cc1 (centres undefined),inactive: -14%

row,Structure (SMILES),growth rescue (activation)
1,O=C(CCNC(=O)c1ccc([N+](=O)[O-])cc1)Nc1ccc(F)cc1,inactive: 0.597%
2,CCc1cc2ccc(C)cc2nc1SCC(=O)NC1CCCC1,inactive: -22.6%
3,O=c1cc(CSc2nnc(COc3cccc4ccccc34)o2)c2ccccc2[nH]1,inactive: 17.3%
4,CCC1(C(=O)c2ccccc2)C(c2cccc([N+](=O)[O-])c2)C1(C(=O)OC)C(=O)OC (centres undefined),inactive: -33.5%
5,O=C(c1ccccc1F)N(Cc1ccc2c(c1)OCO2)Cc1cc2cc3c(cc2n2nnnc12)OCO3,inactive: -9.82%
6,COc1ccc(-n2nnnc2SCC(=O)NC2CCCC2)cc1OC,inactive: 6.87%
7,Cn1c(SCC(=O)c2ccccc2)nnc1-c1ccccn1,inactive: -7.31%
8,CC1(C(=O)Nc2ccc(F)c(Cl)c2)Cc2c(-c3cccc(C(F)(F)F)c3)ccnc2O1 (centres undefined),inactive: -0.863%
9,O=C(COC(=O)Cc1ccc(S(=O)(=O)N2CCOCC2)s1)Nc1ccccc1,inactive: -9.19%
10,COc1ccc(OC)c(NC(=O)C2(C)CCN2Cc2ccccc2OC(F)F)c1 (centres undefined),inactive: 5.19%
11,COc1cccc(NC(=O)CN(C)C(C)C(=O)N2CCCCC2)c1 (centres undefined),inactive: -15.6%
12,CN1CCN(c2nc3c(c(=O)[nH]c(=O)n3C)n2Cc2cccc3ccccc23)CC1,inactive: 26.3%
13,Cc1ccc(NC(=O)Nc2cnc3ccccc3c2)cc1,inactive: 8.39%
14,CSc1ccccc1C(=O)Nc1cccc([N+](=O)[O-])c1C,inactive: 7.49%
15,Cc1ccc(N(C)S(=O)(=O)c2cccc(C(=O)Nc3nnc(C4CC4)s3)c2)cc1,inactive: -4.43%
16,CC(C)c1ccc(NC(=O)COC(=O)/C=C/c2cccc([N+](=O)[O-])c2)cc1,inactive: 10.6%
17,CCn1c(SCC(N)=O)nc2sc3c(c2c1=O)CCN(C)C3,inactive: -0.0416%
18,Cc1cc(C)cc(CC2CC(=O)N(c3nc(C)cc(C)n3)C2=O)c1 (centres undefined),inactive: 18.1%
19,O=C(NNC(=O)C1[C@H]2CCCC[C@@H]12)c1ccc(=O)oc1 (some centres undefined),inactive: -12.4%
20,COc1ccccc1-c1cnc(C(O)c2ccc(F)c(C)c2)[nH]1 (centres undefined),inactive: 7.33%
21,O=C(CSc1ccc2c(c1)OCCO2)Nc1cccnc1,inactive: 5.77%
